Laboratory results reported in PubChem BioAssay AID651742 (Broad Institute, 2012).
About 780 (14%) of roughly 5,600 compounds were called active. The inconclusive results got no clear call from the source; some entries with a clear call stand among them for comparison.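 The calls were made as follows: active = mean signal decrease across replicates above about 35% based on untreated-well scatter, with enough replicates individually passing (limit read from the data); inconclusive = no rule stated though some were filed; inactive = the rest.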

Assay: NIH3T3 cell viability loss – cherry-pick, single point, cytotoxicity control for T. cruzi proliferation inhibitor project, confirmation (AID 651742);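 also: 0% = median of neutral control wells and 100% = median of positive control wells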
Settings: NIH/3T3 viability, CellTiter-Glo ATP luminescence, 90 h; at 8.35 µM; hits give high values

SMILES | cytotoxicity (signal decrease)
O=C(Cc1ccccc1)N1CCCCN2[C@H](C1)[C@@H](c1ccc(C#Cc3ccccc3)cc1)[C@@H]2CO | inconclusive: 38.7%
O=C(Cc1cccnc1)N1CCCCN2[C@@H](CO)[C@H](c3ccc(/C=C/c4ccccc4)cc3)[C@@H]2C1 | inconclusive: 38.5%
O=C(Cc1cccnc1)N1CCCCN2[C@H](CO)[C@H](c3ccc(/C=C/c4ccccc4)cc3)[C@@H]2C1 | inconclusive: 38.8%
O=C(Cc1ccncc1)N1CCCCN2[C@H](CO)[C@H](c3ccc(C#Cc4ccccc4F)cc3)[C@H]2C1 | inactive: 26.3%
COc1ccc(C#Cc2ccc([C@H]3[C@@H](CO)N4CCCCN(C(=O)Cc5cccnc5)C[C@H]34)cc2)cc1 | active: 46.3%
O=C(Cc1ccccn1)N1CCCCN2[C@H](CO)[C@H](c3ccc(C#Cc4ccccc4)cc3)[C@@H]2C1 | active: 36.3%
